From article PMC4336329 (PLoS ONE, 2015)
In all, about 310,000 compounds went through this assay and about 14,000 (4.5%) showed an effect of 50% or more. The effect is printed as a negative number. The list shows a part of the results.

Target: human ether-à-go-go-related gene (hERG) potassium channel (human, UniProt Q12809)
Assay: primary screen, population patch clamp on CHO cells stably expressing hERG
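Further: peak tail current of the secondary pulse compared with the same well before compound.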

human ether-à-go-go-related gene (hERG) potassium channel, sequence (Q12809 whole entry, looked up): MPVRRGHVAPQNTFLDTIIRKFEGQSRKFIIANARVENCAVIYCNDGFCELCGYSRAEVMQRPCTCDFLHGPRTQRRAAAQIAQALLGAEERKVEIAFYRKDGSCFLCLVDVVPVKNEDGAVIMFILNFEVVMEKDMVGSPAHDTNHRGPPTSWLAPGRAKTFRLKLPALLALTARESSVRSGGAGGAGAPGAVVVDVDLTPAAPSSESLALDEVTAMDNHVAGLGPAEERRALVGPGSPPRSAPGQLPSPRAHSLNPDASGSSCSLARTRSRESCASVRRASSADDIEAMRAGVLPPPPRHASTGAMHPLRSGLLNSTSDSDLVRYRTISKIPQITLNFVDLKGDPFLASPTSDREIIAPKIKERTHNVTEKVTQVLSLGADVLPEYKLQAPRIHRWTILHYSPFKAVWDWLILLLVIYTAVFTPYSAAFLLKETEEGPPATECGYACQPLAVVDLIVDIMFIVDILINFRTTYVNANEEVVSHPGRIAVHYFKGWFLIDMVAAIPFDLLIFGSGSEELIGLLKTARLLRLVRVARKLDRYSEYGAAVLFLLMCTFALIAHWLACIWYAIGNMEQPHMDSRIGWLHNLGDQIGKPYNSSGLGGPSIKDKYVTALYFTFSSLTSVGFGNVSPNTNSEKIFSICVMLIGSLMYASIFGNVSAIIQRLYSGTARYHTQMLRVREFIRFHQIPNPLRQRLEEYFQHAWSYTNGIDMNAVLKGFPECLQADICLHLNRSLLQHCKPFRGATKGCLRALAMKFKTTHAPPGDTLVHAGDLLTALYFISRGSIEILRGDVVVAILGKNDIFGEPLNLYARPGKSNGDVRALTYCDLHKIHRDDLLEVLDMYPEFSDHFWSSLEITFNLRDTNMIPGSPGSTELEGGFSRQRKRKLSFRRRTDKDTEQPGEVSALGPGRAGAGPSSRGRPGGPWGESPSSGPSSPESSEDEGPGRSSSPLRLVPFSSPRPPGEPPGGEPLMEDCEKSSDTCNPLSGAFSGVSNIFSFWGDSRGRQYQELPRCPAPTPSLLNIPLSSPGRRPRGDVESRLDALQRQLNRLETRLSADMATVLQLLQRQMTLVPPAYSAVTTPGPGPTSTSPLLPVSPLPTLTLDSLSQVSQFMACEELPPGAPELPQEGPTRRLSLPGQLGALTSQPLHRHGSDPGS

| Compound | hERG current change (%, negative = inhibition) at 10uM [%] |
| --- | --- |
| O=C(NCc1cccc(F)c1F)C1CCC(=O)N(C2CCCCCC2)C1 (stereo not shown) | -5.68 |
| CCc1nnc(NC(=O)Cc2ccc(OC)c(OC)c2)s1 | 13.6 |
| Cn1c(COc2ccccc2Br)nc2ccccc21 | 7.18 |
| C/C(CC(=O)NC1C2CC3CC(C2)CC1C3)=N\NC(=O)Cc1cccs1 (stereo not shown) | 3.72 |
| CC(=O)c1ccc(NC(=O)c2cc(C)no2)cc1 | 8.25 |
| CCN(CC)c1ccc(N=Cc2ccccc2[N+](=O)[O-])cc1 | -5.7 |
| CCC(=O)Nc1nnc(SCCOC)s1 | 2.56 |
| CCNC(=S)NNC(=O)c1cc(Br)cs1 | 2.59 |
| Cc1ccc(N2CCCn3c2cc(C)c(C#N)c3=O)cc1C | -21.4 |
| Cc1nc(CCNC(=O)c2ccccc2)cs1 | 24.3 |
| CCOCCCNC(=S)NC1CC2CCC(C1)N2Cc1ccccc1 (stereo not shown) | -23 |
| COC(=O)c1ccccc1NC(=S)N(Cc1ccc2c(c1)OCO2)Cc1cc2cccc(C)c2[nH]c1=O | 1.24 |
| COc1ccc(-n2c(C)cc3cc(OC(C)=O)ccc32)cc1 | 10.5 |
| COc1ccc(N2C(=O)c3cccc4cccc(c34)C2=O)cc1 | 19.3 |
| COC(=O)c1cccc(Nc2cc(C)nc(-c3ccccc3O)n2)c1 | 10.2 |
| O=C(/C=C/c1cccc(C(F)(F)F)c1)Nc1cccc(C(F)(F)F)c1 | 12.4 |
| Cc1ccc([N+](=O)[O-])c2c1C(N1CCCC1)C(C)(C)O2 (stereo not shown) | 11.3 |
| N=C1/C(=C\c2coc3ccc(O)cc3c2=O)C(=O)N=C2SC=CN12 | -4.16 |
| Cc1cccc(/C=N/NC(=O)c2cc(Br)ccc2O)n1 | -4.99 |
| CCCCC(=O)N1C/C=C\C(c2ccc(OC)cc2)N(Cc2ccc(F)cc2)C(=O)[C@H]1Cc1ccccc1 (stereo partly shown) | 7.51 |
| COc1ccc(NC(=S)NCC(O)c2ccccc2)c(OC)c1 (stereo not shown) | 3.4 |
| Nn1c(SCC(=O)Nc2c(F)cc(F)cc2Br)nnc1C1CCCCC1 | 3.21 |

| Compound | hERG current change (%, negative = inhibition) at 10uM [%] |
| --- | --- |
| CCC(C(=O)NCCCc1ccccc1)n1nc(C)c2c(C)n(-c3ccccc3)nc2c1=O (stereo not shown) | -35.9 |
| Cc1ccc(NS(=O)(=O)c2cc(C(=O)N3CCOCC3)ccc2C)cc1C | -5.85 |
| COc1ccc(S(=O)(=O)N2CCOCC2)cc1NC(=O)CO/N=C/c1ccccc1OC(F)F | -2.92 |
| COc1ccc(/C=C2/SC(c3ccc(C)cc3)=NC2=O)cc1OC | 8.4 |
| COc1ccccc1-c1nnc(SCC(=O)NNC(=O)c2ccccc2F)n1C | 5.84 |
| COCCn1c(=NC(=O)c2ccc(S(=O)(=O)N3CCc4ccccc4C3)cc2)sc2cc(OC)ccc21 | 15.1 |
| CCc1cc(C(=O)NCC(C)(C)N2CCOCC2)sc1C | 0.751 |
| COc1cccc(NC(=O)COc2cccc(-n3cnnn3)c2)c1 | -50.8 |
| CC(CCc1ccco1)NC(=O)CCc1nnc2ccc(NCc3ccccc3)nn12 (stereo not shown) | 8.48 |
| Cn1c(CNC(=O)c2ccccc2F)nnc1SCc1nc2ccccc2c(=O)[nH]1 | 14.4 |
| CCOc1ccccc1OCC(=O)OCC(=O)Nc1ncc(Cl)cc1Cl | 8.39 |
| CC(=O)Oc1ccc2oc(C)c(C(=O)N3CCOCC3)c2c1 | -8.91 |
| CCOc1ccc2c(c1)OC(c1ccc(C)cc1)(C(F)(F)F)NC2=O (stereo not shown) | 5.42 |
| Cc1ccc(S(=O)(=O)N(C)c2ccc(C(=O)NCc3ccccc3F)cc2)cc1 | -17.1 |
| CCOC(=O)c1oc2ccc(CNCCO)c(Cl)c2c1C | 3.43 |
| CCCOc1cccc(C2C(C(=O)c3ccc(C)o3)=C(O)C(=O)N2c2nc(C)c(C(C)=O)s2)c1 (stereo not shown) | 9.66 |
| O=C(CSc1nnc(-c2cccs2)o1)N1CCCc2ccccc21 | 3.02 |
| CC(OC(=O)c1nccnc1N)C(=O)Nc1ccc(S(=O)(=O)N2CCCC2)cc1 (stereo not shown) | -11 |
| Cc1cc(C)n(-c2ccc(F)cc2CN2CCN(Cc3ccccc3)C(CCO)C2)n1 (stereo not shown) | -37.2 |
| CCCCOCCCNC(=O)c1c(-c2ccccc2)noc1C | 3.4 |
| C=CCc1ccc(OCc2ccc(C(=O)O)o2)c(OC)c1 | 24.6 |
| CCSc1nc(O)cc(=O)n1CC | 29.4 |

| Compound | hERG current change (%, negative = inhibition) at 10uM [%] |
| --- | --- |
| CCOC(=O)/C(=N\Nc1cccc(C(F)(F)F)c1)N1CCOCC1 | -16.7 |
| C[n+]1ccccc1/C=C1\Sc2ccccc2N1CCO.[I-] | -2.79 |
| Cc1cccc(-n2c(C)nc3sccc3c2=O)c1 | 17.1 |
| O=C(Nc1ccc(F)cc1)N1CCN(C(=O)C2CCCO2)CC1 (stereo not shown) | 2.96 |
| COc1ccc(S(=O)(=O)/N=C2\C=C(NS(=O)(=O)c3ccccc3)C(=O)c3ccccc32)cc1 | -16.2 |
| O=C(Nc1ccccc1)c1cn(CCBr)cn1 | 17.3 |
| COC(=O)Oc1c(Br)c(=O)oc2ccccc12 | 16.4 |
| COc1ccc(COC(=O)C2CCN(S(=O)(=O)c3ccc(Cl)cc3)CC2)cc1 | 30 |
| CCc1nc(SCC(=O)c2ccccc2)c2ccccc2n1 | 12.9 |
| CN(C)S(=O)(=O)c1cccc(NC(=S)N2CCCCC2CO)c1 (stereo not shown) | -6.33 |
| COc1cc2ccccc2cc1C(=O)Nc1cccnc1 | -9.84 |
| Cc1ccccc1-n1c(SCC(=O)c2c(N)n(C)c(=O)n(C)c2=O)nc2sc3c(c2c1=O)CCCC3 | 33.5 |
| Cn1c(=O)c2cc(S(=O)(=O)NCCC(=O)NC3CCCCCCC3)ccc2n(C)c1=O | -13.2 |
| Cc1nc(N2CCC(C)CC2)c2nnn(Cc3ccccc3)c2n1 | -0.828 |
| O=C(NC1CCCCC1)C(c1ccc(F)cc1)N(CCc1ccccc1)C(=O)CN1C(=O)c2ccccc2S1(=O)=O (stereo not shown) | 15.8 |
| CC1=C(C)/C(=N\OS(=O)(=O)c2ccccc2)C=CC1=O | -10.7 |
| Cc1n[nH]c(C)c1CCc1nc2c3ccccc3nc(SCC(=O)Nc3ccccc3F)n2n1 | 17.7 |
| COc1cc(C(=O)NCCCNc2ccc([N+](=O)[O-])cc2)cc(OC)c1OC | -57.6 |
| COc1ccc(C(=O)NNC(=O)C2CCCN(C3CC(=O)N(c4ccccc4)C3=O)C2)cc1 (stereo not shown) | 7.27 |
| O=C(OC1CCOC1=O)c1ccc2ncsc2c1 (stereo not shown) | 14.9 |
| O=C(COc1ccc(F)c(Cl)c1)N1CCCCCCC1 | 14.1 |
| C=CCNC(=O)/C(=C\c1ccc([N+](=O)[O-])cc1)NC(C)=O | 2.33 |

| Compound | hERG current change (%, negative = inhibition) at 10uM [%] |
| --- | --- |
| CCN(CC(=O)NCc1cccs1)C(=O)CCC(=O)c1ccc(C)cc1 | -46.9 |
| Cc1ccc(NC(=O)CSCC(=O)NC2=NCCS2)cc1 | 8.6 |
| COc1ccccc1C1(CCNS(=O)(=O)c2ccc(C)cc2)CCOC(C(C)C)C1 (stereo not shown) | 4.49 |
| Cn1c(=O)c2c(nc(NCC3CCCO3)n2Cc2ccccc2)n(C)c1=O (stereo not shown) | -11.6 |
| Cc1cccc(NC(=O)COn2nnc3ccc(S(C)(=O)=O)cc32)c1 | 19.4 |
| Cc1onc(-c2c(Cl)cccc2Cl)c1C(=O)NCC1CCCO1 (stereo not shown) | 8.5 |
| O=C(CCN1C(=O)/C(=C/c2ccc(Cl)cc2)SC1=S)Nc1ccc(C(=O)O)cc1 | 3.38 |
| COCCCNC(=O)/C(C#N)=C/c1c(N2CCCCCC2)nc2ccccn2c1=O | 2.27 |
| CCOC(=O)c1c(C)[nH]c(NC(=O)NNC(=O)c2ccccc2Cl)c1C | 15.1 |
| Cc1cc(C)nc(SC2CC(=O)N(c3ccc(Cl)cc3)C2=O)n1 (stereo not shown) | -8.77 |
| COc1ccc(N2CCN(C(=O)C(=O)c3cn(CC(=O)N4CCOCC4)c4ccccc34)CC2)cc1 | 2.05 |
| NS(=O)(=O)c1ccc(S(=O)(=O)c2ccccc2)nc1 | 5.27 |
| O=Cc1cn(CC(O)CN2CCCCC2)c2ccccc12 (stereo not shown) | 27.3 |
| COc1ccc(S(N)(=O)=O)cc1C(=O)NCCCN1CCN(c2cccc(Cl)c2)CC1.CS(=O)(=O)O | -23.9 |
| COc1ccc(/C=N/NC(=O)c2ccco2)cc1Cn1nc(C)c([N+](=O)[O-])c1C | -14.7 |
| Cc1cc(C(=O)COC(=O)CNC(=O)c2ccco2)c(C)n1Cc1ccco1 | -3.61 |
| O=S1(=O)CCN(OCc2ccc(Cl)cc2)CC1 | 34.5 |
| O=C(CSc1nc2c(cnn2-c2ccccc2)c(=O)[nH]1)N1N=C(c2cccs2)CC1c1ccc(F)cc1 (stereo not shown) | 16 |
| COc1cc(C2C(C(=O)c3ccco3)=C(O)C(=O)N2CCc2ccccc2)ccc1O (stereo not shown) | 8.89 |
| Brc1ccc2[nH]c3c(N4CCc5ccccc5C4)ncnc3c2c1 | 11.6 |
| CN1C2CCC1/C(=C\c1ccccc1)C(=O)/C2=C\c1ccccc1 | -1.73 |
| CC1CCCC(C)N1C(=O)COC(=O)Cc1ccc(F)cc1 (stereo not shown) | 14 |
